For this assay, the system named is NCI-H322M lung. As to the kind of experiment: inhibition of tumour cell growth, NCI panel, 48 h.

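1) Cells in 96-well plates. 2) Compound, 48 h, 5 concentrations. 3) Linear interpolation between surrounding doses. 4) Unreached endpoint = highest concentration. At the GI50, growth is halved. Definition used: TGI = concentration required for complete inhibition of growth.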

As for `CN1CCN(c2ccc(Nc3nc(N4CCN(S(=O)(=O)c5ccc(Cl)cc5)CC4)c4sccc4n3)cc2)CC1`, the GI50 is 12.7 µM and the TGI was 29.8 µM.

Consider `O=C(Nc1nc2ccc([N+](=O)[O-])cc2s1)Nc1ccccc1I`, for which the GI50 is 3.19 µM and the TGI was found to be 33.9 µM.

Consider `C=C1CC[C@@H]2[C@]3(C)COC(c4cn[nH]c4-c4ccc(Br)cc4)O[C@@H]3CC[C@@]2(C)[C@@H]1C/C=C1/C(=O)OCC1O` (some centres not stated), for which the GI50 was 12.5 µM and the TGI was 25.6 µM.

For `CCC(C)S(=O)(=O)c1oc(-c2ccc(C)cc2)nc1S(=O)(=O)c1ccccc1` (configuration not stated), the GI50 is 12.3 µM and the TGI amounted to 24.7 µM.

Regarding `Cc1cc(N=C2NC(=O)/C(=C/c3cc(C(C)(C)C)c(O)c(C(C)(C)C)c3)S2)n[nH]1`, the GI50 was 3.49 µM and the TGI worked out at 21.8 µM.

Regarding `COc1ccc(-c2cc(-c3cc(C(C)C)c(O)cc3C)nn2-c2ccc(S(N)(=O)=O)cc2)cc1`, the GI50 is 12.5 µM and the TGI was 25.1 µM.

The record behind these values is PubChem BioAssay (NCI).
